Data published in the supplement of paper PMC12217912.
This is one part of the list. The full chains were built here from the parent and the listed change. Values near 0.05 are background.

B1: TEV protease; numbered along this chain (parent)
chain: MGESLFKGPRDYNPISSSICHLTNESDGHTTSLYGIGFGPFIITNKHLFRRNNGTLVVQSLHGVFKVKDTTTLQQHLVDGRDMIIIRMPKDFPPFPQKLKFREPQREERICLVTTNFQTKSMSSMVSDTSCTFPSGDGIFWKHWIQTKDGQCGSPLVSTRDGFIVGIHSASNFTNTNNYFTSVPKNFMELLTNQEAQQWVSGWRLNADSVLWGGHKVFMVKPEEPFQPVKEATQL

Variants of: B1
Assay: raw area under fraction-flipped curve 0-4 h after induction (AUC4h, not background-subtracted), DNA-recorder readout of cleavage of the substrate (dimensionless); higher = more cleavage of the substrate by the protease variant
Settings: temperature: 34 °C; time window: 0-4 h after rhamnose induction
Description: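 In vivo DNA recorder in E. coli TOP10(DE3) ΔrhaA at 34 °C. Each TEVp single-site mutant (parent TEVp 0) is paired with a single-site variant of the 7-mer TEVs (canonical ENLYFQ|S). The substrate sits between flexible linkers in a Bxb1-sfGFP-TEVs-SsrA fusion, so cleavage stabilises Bxb1 and speeds flipping of a recombination array, read by NGS. The value is the raw area under the fraction-flipped curve over 0-4 h after rhamnose induction (AUC4h), with ≥20 reads per time point. It is not background-subtracted; inactive controls average about 0.047.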
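Further: Bxb1 expression induced with 0.2% (w/v) L-rhamnose at OD600 near 0.5, cultures sampled hourly, flipped fraction per protease–substrate barcode pair counted by paired-end Illumina sequencing.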

| Variant | area with substrate DNLYFQS | area with substrate FNLYFQS | area with substrate GNLYFQS | area with substrate HNLYFQS | area with substrate INLYFQS | area with substrate MNLYFQS | area with substrate NNLYFQS | area with substrate PNLYFQS | area with substrate TNLYFQS | area with substrate KNLYFQS | area with substrate LNLYFQS | area with substrate RNLYFQS | area with substrate WNLYFQS | area with substrate YNLYFQS | area with substrate QNLYFQS | area with substrate SNLYFQS | area with substrate VNLYFQS |
| --- | --- | --- | --- | --- | --- | --- | --- | --- | --- | --- | --- | --- | --- | --- | --- | --- | --- |
| W141Y | 0.0528 | 0.0474 | 0.0572 | 0.0664 | 0.0629 | 0.0826 | 0.0625 | 0.0544 | 0.0501 |  |  |  |  |  |  |  |  |
| T72Y | 0.0939 |  |  |  | 0.0604 |  | 0.0458 |  | 0.0689 | 0.0775 | 0.057 | 0.0792 | 0.0497 | 0.0568 |  |  |  |
| E108C | 0.0628 |  | 0.0676 | 0.0602 | 0.0369 | 0.0657 |  | 0.05 | 0.0557 | 0.0532 |  |  | 0.0554 |  | 0.0708 |  |  |
| E107C | 0.106 |  | 0.0715 | 0.0676 |  | 0.0542 |  |  | 0.0651 | 0.0644 | 0.0612 |  |  | 0.0645 |  |  |  |
| M83P | 0.0371 |  | 0.0452 |  | 0.0322 |  |  | 0.0465 | 0.0612 | 0.0422 |  | 0.0577 | 0.0401 |  | 0.0531 | 0.0298 |  |
| S60A | 0.0795 | 0.0767 | 0.0625 |  | 0.0413 |  | 0.0599 | 0.0714 | 0.0646 | 0.0903 | 0.0592 |  | 0.0735 | 0.061 |  | 0.0602 |  |
| I139E | 0.083 | 0.0554 | 0.0953 | 0.0568 |  |  | 0.0629 |  | 0.0705 | 0.0586 |  | 0.0551 |  | 0.0586 |  | 0.0587 |  |
| V210T | 0.0526 | 0.0533 |  | 0.0646 |  |  |  | 0.0699 | 0.0426 |  |  | 0.0832 |  |  | 0.0801 |  |  |
| F180R | 0.0515 | 0.0455 | 0.0282 | 0.0181 |  | 0.0289 |  | 0.0481 | 0.0514 | 0.0333 | 0.0508 |  | 0.0563 | 0.0426 | 0.0562 |  | 0.0631 |
| P94M | 0.0891 | 0.0635 | 0.0691 |  |  |  | 0.0734 | 0.0691 | 0.0612 |  | 0.0647 |  | 0.0576 | 0.0586 |  | 0.0106 |  |
| D128P | 0.0893 |  | 0.083 | 0.0637 | 0.0611 |  |  | 0.0772 | 0.1 |  |  |  | 0.0769 |  |  | 0.0686 |  |
| K66C | 0.0741 |  | 0.0646 |  | 0.0615 | 0.0446 |  | 0.0791 | 0.0298 | 0.091 | 0.076 |  | 0.0618 |  |  | 0.085 | 0.0654 |
| P228C | 0.0981 | 0.0535 | 0.0814 | 0.0618 | 0.0615 | 0.0626 |  | 0.079 | 0.0628 | 0.0686 | 0.0621 | 0.0546 | 0.0625 | 0.077 | 0.0677 |  | 0.0605 |
| R87P | 0.0734 |  |  |  | 0.0536 | 0.073 |  |  | 0.0656 |  |  |  | 0.039 | 0.0478 |  |  |  |
| I85G | 0.0531 |  | 0.048 | 0.0489 | 0.0536 |  |  |  | 0.016 |  |  | 0.0533 | 0.0484 | 0.0373 | 0.0286 |  |  |
| V220Y | 0.0717 | 0.0669 |  | 0.0661 |  |  | 0.0795 | 0.0647 | 0.077 | 0.0914 | 0.073 |  | 0.0613 | 0.066 | 0.0569 | 0.064 | 0.0514 |
| T70M | 0.0763 | 0.0614 |  | 0.0634 | 0.0693 |  | 0.0663 |  | 0.0595 |  |  | 0.0705 | 0.0674 |  |  |  |  |
| T114C | 0.0861 |  |  | 0.0444 |  |  | 0.0468 |  | 0.0762 | 0.0596 |  |  |  |  |  | 0.077 |  |

| Variant | area with substrate DNLYFQS | area with substrate FNLYFQS | area with substrate GNLYFQS | area with substrate HNLYFQS | area with substrate INLYFQS | area with substrate MNLYFQS | area with substrate NNLYFQS | area with substrate PNLYFQS | area with substrate TNLYFQS | area with substrate KNLYFQS | area with substrate LNLYFQS | area with substrate RNLYFQS | area with substrate WNLYFQS | area with substrate YNLYFQS | area with substrate QNLYFQS | area with substrate SNLYFQS | area with substrate VNLYFQS |
| --- | --- | --- | --- | --- | --- | --- | --- | --- | --- | --- | --- | --- | --- | --- | --- | --- | --- |
| P93R | 0.0791 |  |  | 0.048 |  |  |  | 0.0733 | 0.0755 |  |  |  | 0.0761 | 0.0935 |  |  | 0.0654 |
| N178F | 0.204 | 0.0995 |  | 0.103 | 0.132 |  |  | 0.0929 | 0.133 | 0.0917 |  |  |  | 0.0872 | 0.0814 | 0.102 |  |
| I139D | 0.0817 |  | 0.0644 |  |  |  |  |  | 0.0589 | 0.0649 | 0.0551 |  |  | 0.0433 |  | 0.0617 | 0.06 |
| P134K | 0.0771 |  |  |  | 0.0568 | 0.077 | 0.0821 | 0.0654 |  | 0.0903 |  |  |  |  |  | 0.0536 | 0.0678 |
| D91V | 0.0803 |  | 0.0644 |  | 0.0571 |  |  | 0.0657 | 0.0648 |  | 0.0636 |  |  |  |  | 0.0686 |  |
| S127F | 0.081 |  | 0.086 | 0.0664 | 0.0775 |  | 0.0735 | 0.0675 | 0.0663 | 0.0674 | 0.0773 | 0.0632 | 0.0547 |  |  | 0.0814 |  |
| T147L | 0.0521 | 0.0535 |  | 0.0619 | 0.0563 |  | 0.0522 | 0.0616 | 0.0555 | 0.0788 |  | 0.0501 | 0.0577 | 0.0525 | 0.0554 |  |  |
| V78M | 0.0789 | 0.0834 | 0.0703 | 0.0599 | 0.0689 | 0.0632 | 0.0576 | 0.065 | 0.0918 | 0.054 |  | 0.0389 | 0.0564 |  |  | 0.0647 |  |
| C20Y | 0.0459 | 0.0527 |  | 0.0433 |  |  | 0.0427 | 0.0504 | 0.0616 | 0.0619 | 0.0634 | 0.0493 | 0.06 | 0.0566 |  |  |  |
| I139L | 0.0752 | 0.0633 | 0.0671 | 0.0694 |  | 0.056 |  | 0.0562 |  | 0.0701 | 0.0675 |  |  | 0.0472 |  | 0.073 | 0.0842 |
| K142V | 0.0693 |  | 0.0751 | 0.0691 |  |  |  | 0.0831 | 0.0685 |  | 0.0637 | 0.0579 | 0.064 | 0.073 |  |  |  |
| P228E | 0.0753 | 0.0515 |  | 0.0753 | 0.0706 | 0.061 |  | 0.0646 |  |  |  |  |  |  |  |  | 0.0477 |
| K148Y | 0.0833 |  |  | 0.0742 |  | 0.0622 |  |  | 0.0689 |  | 0.0604 |  | 0.0621 | 0.0641 |  | 0.075 |  |
| T132W | 0.0669 | 0.0559 | 0.0716 |  | 0.0595 | 0.0534 |  |  | 0.06 |  | 0.0559 |  | 0.082 | 0.031 |  |  |  |
| C111F | 0.0828 | 0.048 | 0.0684 | 0.0602 |  | 0.0834 | 0.0623 | 0.0667 | 0.0606 |  | 0.0397 | 0.0596 | 0.063 |  |  | 0.079 | 0.0735 |
| R50V | 0.0843 |  |  | 0.0658 |  | 0.066 |  | 0.0555 | 0.146 | 0.0777 |  | 0.0836 | 0.064 | 0.0584 | 0.0869 |  |  |
| K185W | 0.0813 | 0.0539 | 0.0711 | 0.0611 | 0.0688 | 0.0415 |  | 0.0669 | 0.0613 | 0.0674 | 0.061 |  | 0.0652 | 0.0629 | 0.0496 | 0.0615 | 0.0575 |
